Measurements taken from PubChem BioAssay AID686979 (National Center for Advancing Translational Sciences (NCATS), 2013).
The whole screen tested about 420,000 compounds, of which about 50,000 (12%) were called active. The shares of active, inactive and inconclusive entries below differ from those in the screen. Calls follow the shape of the dose curve; as a rule, active = well fitted inhibition curve with a large enough effect; inconclusive = small, poorly fitted or top-dose-only effect; inactive = flat fitted curve, though single readings scatter. Potencies of inconclusive entries are left out as doubtful fits.

Assay: qHTS for Inhibitors of human tyrosyl-DNA phosphodiesterase 1 (TDP1): qHTS in cells in presence of CPT; also: nearly all actives have a fitted effect of over 55% in size
Settings: chicken DT40 Tdp1-/-;hTDP1 cells + 20 nM CPT, ATP luminescence, 48 h; series mostly up to 46.2 µM
Method in brief: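 Chicken DT40 Tdp1-/- cells complemented with human TDP1, 400 cells/well, exposed to compounds plus 20 nM camptothecin for at least 48 h at 37 C; viability read as ATP content by CellTiter-Glo luminescence.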
Potency is read from the fitted curve at half-maximal effect; tags tell the direction and shape of the fitted curve.

Compound | Potency
Fc1ccc(COc2ccc(Br)cc2CNCC2CCCO2)cc1 (configuration not stated) | inconclusive [inhibitor, single point]
CCCNC(=O)/C(=C/c1cn(S(=O)(=O)N(C)C)c2ccccc12)NC(=O)c1ccc(OC)cc1 | inactive
CC(=O)c1c(C)[nH]c(C(=O)OCC(=O)Nc2ccc3[nH]c(=O)[nH]c3c2)c1C | inactive
Cc1ccc(CNC(=S)Nc2cc(C)ccc2OC(F)F)cc1 | inactive
CC1(c2ccc(Cl)cc2Cl)NC(=O)N(CC(=O)NC2CCCCC2)C1=O (configuration not stated) | inconclusive [inhibitor, partial curve]
COc1cc(NC(=O)CSc2nc3[nH]ncc3c(=O)n2-c2ccccc2C)cc(OC)c1OC | inconclusive [inhibitor, single point]
COc1ccccc1N1C(=O)CC(Sc2n[nH]c(-c3cccc(C)c3)n2)C1=O (configuration not stated) | active: 2.06 µM
Cc1cccc(CSc2nnc3c(n2)[nH]c2ccccc23)c1 | inconclusive [inhibitor, single point]
CCOC(=O)C1=CN(Cc2ccco2)S(=O)(=O)N(CC)C1c1cccc(OC)c1 (configuration not stated) | inactive
CCCn1nc(NC(=O)c2cccs2)c2cc3ccccc3nc21 | inconclusive [inhibitor, partial curve]
Cc1ccc(NC(=O)C2CCCN(S(=O)(=O)c3c(C)n[nH]c3C)C2)cc1Cl (configuration not stated) | inconclusive [inhibitor, single point]
COc1cc(C(=O)Nc2ccc(C(=O)O)cc2)ccc1OC(C)=O | inactive
N#Cc1c(NC(=O)C2CCCO2)sc2c1CCCCC2 (configuration not stated) | inactive
CC1(C)CC(=O)C2=C(C1)NC1=C(C(=O)c3ccccc31)C2c1ccc(O)cc1 (configuration not stated) | inconclusive [inhibitor, single point]
Cc1c(C)n(C)c2ccc(C(=O)NCCc3ccc(Cl)cc3)cc12 | active: 18.4 µM
COc1cc(OC)cc(-c2nc3ccccc3c(=O)n2NC(=O)c2cccnc2Cl)c1 | inactive
O=C(NCCc1ccc(Cl)cc1)c1ccc2c(c1)N(Cc1c(F)cccc1Cl)C(=O)CS2 | active: 9.2 µM
c1ccc(-c2nnc(CN3CCN(C(c4ccccc4)c4ccccc4)CC3)o2)cc1 | inconclusive [inhibitor, single point]
COc1cccc(/C=N/NC(=O)CNC(=O)c2ccc(S(=O)(=O)N3CCOCC3)cc2)c1OC | inconclusive [inhibitor, partial curve, poor fit]
COC(=O)c1c(C)oc2ccc(N(C(=O)Oc3ccccc3)S(=O)(=O)c3ccc(C(C)(C)C)cc3)cc12 | active: 3.66 µM
NC(=O)c1ccccc1NC(=O)/C=C/c1ccccc1 | inconclusive [inhibitor, partial curve]

Compound | Potency
O=C(c1ccncc1)N1CCC2(CC1)CN(Cc1cc(C(F)(F)F)cc(C(F)(F)F)c1)C2 | inconclusive [inhibitor, single point]
COc1ccccc1-c1nnc2sc(COc3ccc(Cl)cc3Cl)nn12 | inconclusive [inhibitor, partial curve, poor fit]
COc1ccc(CSc2nc(C)cc(=O)[nH]2)cc1Br | inconclusive [inhibitor, partial curve]
CCOC(=O)COc1ccc(CC)cc1C(=O)c1ccn2nc(-c3ccc(Cl)cc3)cc2n1 | active: 20.6 µM
O=C(O)CCNC(=O)/C(=C\c1ccco1)NC(=O)c1ccco1 | inactive
CN(C)CCNC(=O)c1cccc2c(-c3ccc(F)c(F)c3)coc12 | inconclusive [inhibitor, single point]
CCOC(=O)c1c(NC(=O)C(C)Sc2cn(CCNC(=O)c3ccccc3OC)c3ccccc23)sc2c1CCC2 (configuration not stated) | active: 18.4 µM
CC1=C(C(=O)Nc2ccccc2)C(c2ccncc2)C(C#N)=C(SCC(=O)Nc2ccccc2)N1 (configuration not stated) | inconclusive [inhibitor, single point]
Cc1ccc(CNC(=O)c2ccc(N3CCC4(CC3)CC(c3ccccc3)=NO4)c([N+](=O)[O-])c2)cc1 | inconclusive [inhibitor, partial curve]
Cc1cccc(NC(=O)CN2C(=O)NC3(CCCCCCC3)C2=O)c1C | inconclusive [inhibitor, partial curve]
COCCN(C(=O)CSc1nc2ccccc2c(=O)n1CC(C)C)c1c(N)n(Cc2ccccc2)c(=O)[nH]c1=O | inactive
CC(=O)c1ccc(N2CCN(C(=O)C3CCN(S(=O)(=O)c4cccs4)CC3)CC2)cc1 | inconclusive [inhibitor, single point]
C#CCOCCOCCOCCNc1nc(N2CCN(C(=O)[C@H]([C@@H](C)CC)n3cc([C@@H](N)CC(C)C)nn3)CC2)nc(N2CCN(C(=O)[C@H](CCCCN)n3cc([C@@H](N)C(C)CC)nn3)CC2)n1 (some centres not stated) | inactive
COc1cccc(CNC(=O)CSC2=Nc3ccccc3C3=NC(C)C(=O)N23)c1OC (configuration not stated) | inconclusive [inhibitor, single point]
COc1ccc(-c2noc(N3CCN(c4ccc(C)cc4)C(C)C3)n2)cc1OC (configuration not stated) | inconclusive [inhibitor, single point]
O=C(CSc1nc2cccnc2n1Cc1ccccc1)N1CCCC1 | inconclusive [inhibitor, single point]
COc1ccc(C2c3c4c(n(C)c3CCN2C)CCN(C)C4c2ccc(OC)cc2)cc1 (configuration not stated) | inconclusive [inhibitor, partial curve]
Fc1ccc(-c2cc(C(F)(F)F)nc(NCc3ccccc3)n2)cc1 | inconclusive [inhibitor, single point]
COc1cc(OC)c2cc(-c3ccncc3)cnc2c1 | active: 23.7 µM
Cc1cn(C2OC(COC(=O)c3ccccc3)C(OC(=O)c3ccccc3)C2OC(=O)c2ccccc2)c(=O)[nH]c1=O (configuration not stated) | active: 23.1 µM
O=[n+]1c2c(n([O-])c3c1CCC3)CCCC2 | inconclusive [inhibitor, single point]
